The values that follow come from PubChem BioAssay AID328 (DTP/NCI, 2004).

Toxic doses and inconclusive results are not listed. For part of its entries the source gives two or more results. The other results are left out here. There may be further records. Values given together repeat one measurement in other runs, samples, wells, individuals or studies. Starred links: 1 amine or outer side, 2 acyl side, 3 side chain; linkers in the order of their positions; H or OH if unused. Positions of bridges follow the written chain, without caps; N, C: chain ends. Non-standard residues stand in square brackets, D forms with d. Residues, ends and D or L forms follow the SMILES beside them. Chains are numbered I, II in the order given. ξ: configuration not given here. Actinocin(9to1) = Cc1c2oc3c(C)ccc(C(=O)[*:1])c3nc-2c(C(=O)[*:2])c(N)c1=O; ξPro(4ξ-Me) = CC1CNC(C(=O)O)C1; NMeV = CN[CH](C(=O)O)C(C)C; Sar = CNCC(=O)O

This experiment concerns BDF1 mice, P388 leukemia ip, median survival T/C. As to the kind of experiment: NCI In Vivo Anticancer Drug Screen. Data for tumor model P388 Leukemia (intraperitoneal) in B6D2F1 (BDF1) mice. The note with it: endpoint: median survival time, higher = longer survival. The essentials:
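Steps: implant the tumour, treat one group with compound and another with vehicle, record survival, then divide treated by control.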

As to `Cc1c2oc3c(C)ccc(C(=O)NC4C(=O)NC(C(C)C)C(=O)N5CC(C)CC5C(=O)N(C)CC(=O)N(C)C(C(C)C)C(=O)OC4C)c3nc-2c(C(=O)NC2C(=O)NC(C(C)C)C(=O)N3CC(C)CC3C(=O)N(C)CC(=O)N(C)C(C(C)C)C(=O)OC2C)c(N)c1=O` (configuration not stated) (I: TV[ξPro(4ξ-Me)][Sar][NMeV] / II: TV[ξPro(4ξ-Me)][Sar][NMeV]; ester I:1-I:C, II:1-II:C; linker I:N-II:N via Actinocin(9to1); configuration not given here), the T/C (dose: 1440.0 micrograms/kg/injection, schedule: Q04DX003 (ip), vehicle: saline + alcohol) was 100 % of control and 160 % of control. Take `COc1cccc2c1C(=O)c1c(O)c3c(c(O)c1C2=O)C[C@@](O)(C(C)=O)C[C@@H]3OC1CC(N)C(O)C(C)O1` (some centres not stated): the T/C is 100 % of control and 179 % of control (dose: 0.25 mg/kg/injection, schedule: Q## X020 (ip), vehicle: saline); 100 % of control and 170 % of control (dose: 1.25 mg/kg/injection, schedule: Q01DX001 (ip), vehicle: saline); 118 % of control and 185 % of control (dose: 2.5 mg/kg/injection, schedule: Q01DX010 (ip), vehicle: saline); 118 % of control and 180 % of control (dose: 5.0 mg/kg/injection, schedule: Q01DX001 (ip), vehicle: saline); 118 % of control and 175 % of control (dose: 10.0 mg/kg/injection, schedule: Q01DX001 (ip), vehicle: saline). With `COc1cc(C)c(C2NC(=O)c3ccccc3N2)cc1C` (configuration not stated), the T/C (dose: 100.0 mg/kg/injection, schedule: Q01DX009 (ip), vehicle: Klucel (hydroxypropylcellulose) (HPC)) is 104 % of control and 150 % of control. In the case of `CC(CN1CC(=O)NC(=O)C1)N1CC(=O)NC(=O)C1` (configuration not stated), for the setting “dose: 15.0 mg/kg/injection, schedule: Q01DX010 (ip), vehicle: saline”, the T/C is 100 % of control and 190 % of control.

In the case of `NC(=O)C(Br)CBr` (configuration not stated), the T/C (dose: 6.0 mg/kg/injection, schedule: Q01DX009 (ip), vehicle: saline with Tween-80) is 103 % of control and 151 % of control. `COc1cc2c(cc1OC)C(OC)N(C)c1c-2ccc2cc3c(cc12)OCO3` (configuration not stated): the T/C (dose: 200.0 mg/kg/injection, schedule: Q04DX002 (ip), vehicle: Klucel (hydroxypropylcellulose) (HPC)) was 101 % of control and 181 % of control. On to `CC1=CC2=C(C=O)C(=O)[C@](C)(O)[C@@H](O)C2=CO1`, for which the T/C (dose: 100.0 mg/kg/injection, schedule: Q04DX003 (ip), vehicle: saline with Tween-80) was 104 % of control and 150 % of control. `CC1CN1C(=O)c1cc(C(=O)N2CC2C)cc(C(=O)N2CC2C)c1` (configuration not stated): for the setting “dose: 25.0 mg/kg/injection, schedule: Q01DX009 (ip), vehicle: saline with Tween-80”, the T/C was 122 % of control and 150 % of control. Take `O=NN(CCCl)C(=O)N[C@@H]1CCCC[C@H]1NC(=O)N(CCCl)N=O`: for the setting “dose: 50.0 mg/kg/injection, schedule: Q01DX009 (ip), vehicle: Klucel (hydroxypropylcellulose) (HPC)”, the T/C was 108 % of control and 170 % of control.

As for `[O-][n+]1c(CN2CCCCC2)nc2cccc3c2c1-c1ccccc1-3`, the T/C is, setting by setting: (dose: 100.0 mg/kg/injection, schedule: Q01DX009 (ip), vehicle: saline with Tween-80) 121 % of control, 123 % of control, 158 % of control; (dose: 200.0 mg/kg/injection, schedule: Q01DX009 (ip), vehicle: Klucel (hydroxypropylcellulose) (HPC)) 91 % of control and 159 % of control. Turning to `CN(N=O)C(=O)NC(N)=O`, the T/C (dose: 3.6 mg/kg/injection, schedule: Q01DX009 (ip), vehicle: saline) is 119 % of control and 161 % of control. With `NNC(=O)[C@H]1CC[C@H]1C(=O)NN`, the T/C (dose: 100.0 mg/kg/injection, schedule: Q01DX009 (ip), vehicle: saline) was 118 % of control and 150 % of control. `[N-]=[N+]=CC(=O)NCC(=O)NN`: for the setting “dose: 400.0 mg/kg/injection, schedule: Q01DX010 (ip), vehicle: water”, the T/C was 90 % of control and 200 % of control. For `ClC(Cl)(Cl)c1ccc(C(Cl)(Cl)Cl)cc1`, the T/C (dose: 50.0 mg/kg/injection, schedule: Q04DX003 (ip), vehicle: Klucel (hydroxypropylcellulose) (HPC)) was 92 % of control and 150 % of control. With `CC1=[N+](C)C(C)(C)CC(C)O1` (configuration not stated), the T/C (dose: 25.0 mg/kg/injection, schedule: Q01DX009 (ip), vehicle: saline) was 88 % of control and 200 % of control. In the case of `C[n+]1c(-c2ccccc2)c2cc(N)ccc2c2ccccc21`, the T/C (dose: 15.0 mg/kg/injection, schedule: Q01DX009 (ip), vehicle: saline) was 100 % of control and 161 % of control.

On to `COc1cc2c(c(OC)c1OC)-c1cc(I)c(O)cc1[C@@H](NC(C)=O)CC2`, for which the T/C (dose: 44.0 mg/kg/injection, schedule: Q04DX003 (ip), vehicle: saline with Tween-80) is 110 % of control and 200 % of control. In the case of `CC(=O)N(O)c1ccc(Cl)cc1`, the T/C (dose: 100.0 mg/kg/injection, schedule: Q04DX002 (ip), vehicle: saline with Tween-80) is on record as 86 % of control, 114 % of control, 154 % of control. Take `O=C1OC(=O)c2c(Br)c(Br)c(Br)c(Br)c21`: the T/C (dose: 37.5 mg/kg/injection, schedule: Q01DX009 (ip), vehicle: saline with Tween-80) was 90 % of control and 150 % of control. Turning to `CCOC(=O)C1C(=O)C(CN(CCCl)CCCl)C(=O)C(C(=O)OCC)C1c1ccc(O)cc1` (configuration not stated), the T/C (dose: 50.0 mg/kg/injection, schedule: Q04DX003 (ip), vehicle: saline with Tween-80) is 86 % of control and 269 % of control.

`C[N+]1(C)CCCCC1`: under “dose: 50.0 mg/kg/injection, schedule: Q01DX009 (ip), vehicle: saline”, the T/C is 96 % of control and 545 % of control. Consider `ClCCN(CCCl)CCCN1c2ccccc2Sc2ccccc21`, for which the T/C (dose: 6.25 mg/kg/injection, schedule: Q04DX003 (ip), vehicle: saline with Tween-80) is 118 % of control and 161 % of control.
